About 100 (0.036%) of roughly 280,000 compounds were called active. Inconclusive means that the source gave no clear call. Such entries were picked first, then a sample of the others. The call rests on the fitted dose curve; in most records, active means well fitted inhibition curve with a large enough effect in the signal ratio, with a control signal flat (not every such curve was filed as active); inconclusive means small, poorly fitted or top-dose-only effect, or effect the other way, or a change in a side signal; inactive means no such curve, though single readings can be large or run the other way; the % refers to the signal ratio. Where the call is inconclusive, the potency comes from a doubtful curve fit. “Side channel” marks fits to a control or component signal instead of the main read-out.
Target: Muscleblind-like protein 1 (Homo sapiens) (UniProt Q9NR56)
Chain of UniProt Q9NR56 (Q9NR56 whole entry, looked up): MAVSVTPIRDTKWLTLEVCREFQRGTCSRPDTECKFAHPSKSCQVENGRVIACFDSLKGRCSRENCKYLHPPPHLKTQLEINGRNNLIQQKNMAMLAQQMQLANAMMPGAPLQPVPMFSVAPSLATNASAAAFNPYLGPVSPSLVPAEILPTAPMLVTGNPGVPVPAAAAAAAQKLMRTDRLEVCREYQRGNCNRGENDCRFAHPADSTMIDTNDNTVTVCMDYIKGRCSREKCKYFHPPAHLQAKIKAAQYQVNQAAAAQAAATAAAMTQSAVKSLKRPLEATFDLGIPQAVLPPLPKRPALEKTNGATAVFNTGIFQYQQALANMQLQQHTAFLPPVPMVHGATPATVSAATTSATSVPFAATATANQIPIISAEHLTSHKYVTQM
Test: qHTS Assay for Inhibitors of MBNL1-poly(CUG) RNA binding
Settings: TR-FRET MBNL1-His/biotin-(CUG)12 binding, 665/545 ratio; series mostly up to 57.5 µM
Procedure, shortened: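 Compound titration spanned 92 nM–58 uM against the MBNL1-His/biotin-(CUG)12 complex. After 60 min at room temperature with 5 nM streptavidin-XL665 and 0.055 ng/ul terbium anti-His, ratiometric 665/545 nm emission (Ex 340 nm) normalized to controls.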
Potency means the concentration at half of the fitted maximal effect; tags describe the fitted curve by direction and shape or compound fluorescence and quenching.

Row | Structure (SMILES) | Potency
1 | Cc1cc(NCc2ccccc2)n2ncc(-c3ccccc3)c2n1 | inactive
2 | Cc1ccccc1N1C(S)=C(C#N)C(=O)NC1c1cccs1 (stereo not given) | inactive
3 | Cc1cc(=O)oc2cc(OCC(=O)NCc3ccncc3)ccc12 | inactive
4 | CCOc1cc(/C=N\NC(=O)c2ccc(C)nc2)cc([N+](=O)[O-])c1O | inconclusive: 10 µM [quencher, side channel, partial curve]
5 | CCCNC(=S)Nc1ccc2nc(-c3ccccn3)c(-c3ccccn3)nc2c1 | inconclusive: 15.8 µM [quencher, side channel, partial curve]
6 | Cc1noc(NC(=O)c2ccc(F)cc2)c1C#N | inconclusive: 0.126 µM [quencher, side channel, full curve, poor fit]
7 | O=C(O)C(c1ccccc1)N1C(=O)/C(=C\c2ccc(O)c(O)c2)SC1=S (stereo not given) | inconclusive: 22.4 µM [quencher, side channel, partial curve]
8 | CC(C)CCN1CCN(Cc2cccc(C(F)(F)F)c2)CC1CCO (stereo not given) | inconclusive: 5.01 µM [inhibitor, single point]
9 | N#C/C(=C\c1cn[nH]c1-c1ccc(Cl)cc1)C(=O)NC1CC1 | inconclusive: 12.6 µM [quencher, side channel, partial curve, poor fit]
10 | O=[N+]([O-])c1ccc(-c2nc3ccc([N+](=O)[O-])cc3[nH]2)cc1 | inconclusive: 3.16 µM [quencher, side channel, full curve]
11 | CN(CCC(=O)Nc1ccc(Cl)cc1)Cc1ccccc1 | inactive
12 | Cn1cnnc1Sc1ccc(/C=C(\CCC(=O)O)c2nc3ccccc3s2)cc1[N+](=O)[O-] | inconclusive: 35.5 µM [quencher, side channel, single point]
13 | CC1=Nc2ccccc2/C1=C/c1sc(=S)n(-c2cccc(C(=O)O)c2)c1O | inactive
14 | O=C(Nc1ncc2c(n1)-c1ccccc1CC2)c1cccc(Cl)c1 | inactive
15 | Cc1ccc(NC(=O)C[n+]2ccccc2)cc1[N+](=O)[O-] | inactive
16 | O=C1NC(=O)/C(=C/c2ccc(N3CCOCC3)o2)N1 | inconclusive: 44.7 µM [quencher, side channel, partial curve, poor fit]
17 | CCc1nnc(NC(=O)CC23CC4CC(CC(Br)(C4)C2)C3)s1 | inactive
18 | CN1/C(=C/C=N/NC(=O)c2ccc([N+](=O)[O-])cc2)C(C)(C)c2ccccc21 | inconclusive: 39.8 µM [fluorescent, side channel, single point]
19 | CC(=O)Nc1ccc2c(c1)C(=O)N(c1ccc(C)cc1)C2=O | inconclusive: 11.2 µM [quencher, side channel, partial curve]
20 | COc1ccc(N2C(S)=C(C#N)C(=O)NC23CCCCC3)cc1 | inactive

Row | Structure (SMILES) | Potency
21 | COc1ccc(-n2nc(C(=O)NCC(=O)N3CCC(C(N)=O)CC3)c3ccccc3c2=O)cc1 | inconclusive: 25.1 µM [quencher, side channel, single point]
22 | O=C(c1ccc(Cl)c([N+](=O)[O-])c1)N1CCN(c2ccccc2)CC1 | inconclusive: 14.1 µM [quencher, side channel, partial curve]
23 | O=C(Nc1ccc(F)cc1)c1sc2cc(C(F)(F)F)cnc2c1-c1cccs1 | inconclusive: 31.6 µM [fluorescent, side channel, single point]
24 | CCc1ccc(C(C(=O)NCCOC)N(C(=O)Cn2nnc3ccccc32)c2cccnc2)cc1 (stereo not given) | inactive
25 | O=C(Cc1ccc([N+](=O)[O-])cc1)NCc1ccccn1 | inconclusive: 15.8 µM [quencher, side channel, partial curve]
26 | COc1ccc(C2SCCN2C(=S)Nc2cccc(Cl)c2)cc1 (stereo not given) | inconclusive: 1.12 µM [quencher, side channel, single point]
27 | CN(C)CCCNC(=O)c1ccc(-c2nc(-c3ccc(Cl)cc3)cs2)cc1 | inconclusive: 22.4 µM [quencher, side channel, partial curve]
28 | NS(=O)(=O)c1ccc(CCNC(=O)c2cc([N+](=O)[O-])ccc2N2CCCCC2)cc1 | inconclusive: 14.1 µM [quencher, side channel, partial curve]
29 | Cc1ccc(N2CCOCC2)c2c1C(=O)c1ccccc1C2=O | inconclusive: 14.1 µM [quencher, side channel, partial curve]
30 | Cc1cc(C)cc(C(=O)NC(CC(N)=O)c2ccc(NCCN3CCCC3)c([N+](=O)[O-])c2)c1 (stereo not given) | inconclusive: 22.4 µM [quencher, side channel, partial curve]
31 | CCN(CC)c1ccc(/C=N/Nc2nc(C)cc(=O)[nH]2)c(O)c1 | inconclusive: 20 µM [quencher, side channel, single point]
32 | CC1=C(C(=O)Nc2nc3ccccc3s2)C(c2ccco2)C(C#N)=C(SCC(=O)NC2CCCCC2)N1 (stereo not given) | inconclusive: 28.2 µM [fluorescent, side channel, partial curve]
33 | Cn1cccc1/C=N/NC(=O)c1cccs1 | inconclusive: 20 µM [quencher, side channel, single point]
34 | CC1CC(C)CN(c2ccc([N+](=O)[O-])nc2)C1 (stereo not given) | inconclusive: 15.8 µM [quencher, side channel, partial curve]
35 | O=C1c2ccccc2C(=O)N1c1cccnc1 | inconclusive: 17.8 µM [quencher, side channel, partial curve]
36 | O=C(NCc1ccccn1)Nc1cccc([N+](=O)[O-])c1 | inconclusive: 7.94 µM [quencher, partial curve]
37 | COc1ccc(C(=O)NC(C)c2ccc(-n3ccnc3)cc2)cc1[N+](=O)[O-] (stereo not given) | inconclusive: 28.2 µM [quencher, side channel, partial curve]
38 | N=C1/C(=C\c2coc3ccc(O)cc3c2=O)C(=O)N=C2SC=CN12 | inconclusive: 12.6 µM [quencher, side channel, partial curve]
39 | Cc1ccc(-c2nnn(CC(=O)N(Cc3ccc(F)cc3)C(C(=O)NC3CCCC3)c3ccncc3)n2)o1 (stereo not given) | inconclusive: 1.12 µM [quencher, side channel, full curve, poor fit]
40 | CN(C(=O)c1ccc(N2CCCCC2)c([N+](=O)[O-])c1)C1(C)CCS(=O)(=O)C1 (stereo not given) | inconclusive: 15.8 µM [quencher, side channel, partial curve]

Row | Structure (SMILES) | Potency
41 | CCOC(=O)CC1CCCCN1C(=O)c1cc(COc2cccc3cnccc23)on1 (stereo not given) | inconclusive: 39.8 µM [quencher, side channel, single point]
42 | C=CCn1cccc(C(=O)Nc2cc(OC)cc(OC)c2)c1=O | inconclusive: 39.8 µM [quencher, side channel, single point]
43 | CCCOc1ccc(C2C3=C(Nc4nc(N)[nH]c(=O)c42)c2ccccc2C3=O)cc1 (stereo not given) | inconclusive: 20 µM [quencher, side channel, partial curve, poor fit]
44 | C/C(=N\NC(=O)Cc1cc(=O)[nH][nH]1)c1cccc([N+](=O)[O-])c1 | inconclusive: 14.1 µM [quencher, side channel, partial curve]
45 | COc1ccc(-c2cc(=O)oc3cc(O)ccc23)cc1 | inconclusive: 20 µM [quencher, side channel, partial curve]
46 | O=C1C(Br)=Cc2cccc3cccc1c23 | inconclusive: 12.6 µM [quencher, side channel, partial curve]
47 | CCCC1Nc2ccc(C(=O)O)cc2C2C=CCC12 (stereo not given) | inconclusive: 22.4 µM [quencher, side channel, single point]
48 | Cc1ccc(/C=N/NC(=O)Cc2ccc(Cl)cc2)c(O)c1 | inactive
49 | O=S(=O)(Nc1ncccn1)c1ccc(NS(=O)(=O)c2cc(Cl)ccc2Cl)cc1 | inactive
50 | CC(Oc1ccc(F)cc1)C(=O)Nc1cccc(-c2nn[nH]n2)c1 (stereo not given) | inactive
51 | COc1cc(C(C[N+](=O)[O-])c2c(C)cc3ccccn23)ccc1O (stereo not given) | inconclusive: 10 µM [quencher, side channel, partial curve]
52 | COc1ccc(CCNC(=O)CSc2nnc(-c3ccco3)c(-c3ccco3)n2)cc1OC | inconclusive: 15.8 µM [quencher, side channel, partial curve]
53 | Cc1ccc(N2CCN(C(=O)c3cccc([N+](=O)[O-])c3)CC2)cc1Cl | inactive
54 | S=c1[nH]ncn1/N=C/c1cccs1 | inconclusive: 44.7 µM [quencher, side channel, single point]
55 | COc1ccc(C2C(C(=O)Nc3cccnc3)=C(C)Nc3nc(-c4cccs4)nn32)cc1 (stereo not given) | inconclusive: 7.08 µM [quencher, side channel, single point]
56 | COc1cc(C=O)ccc1OCCOCCOc1c(C)cc(Cl)cc1Cl | inactive
57 | CCn1cc([N+](=O)[O-])c(C(=O)NCc2ccc(Cl)cc2)n1 | inconclusive: 20 µM [quencher, side channel, single point]
58 | CC#CCCCC(=O)Nc1cc(OC)nc(OC)n1 | inactive
59 | O=C(CCN1C(=O)/C(=C/c2cccs2)SC1=S)Nc1ccc(C(=O)O)cc1 | inconclusive: 10 µM [quencher, side channel, partial curve]
60 | CC1(C)CCC2=C(O1)c1ccccc1C(=O)C2=O | inconclusive: 31.6 µM [quencher, side channel, partial curve]

Source: PubChem BioAssay AID2675 (National Center for Advancing Translational Sciences (NCATS), 2010)
